Out of some 48,000 compounds screened, about 450 (0.94%) were called active. Not shown: some 19% with an inconclusive outcome. Calls follow the shape of the dose curve; as a rule, active = well fitted inhibition curve with a large enough effect; inconclusive = small, poorly fitted or top-dose-only effect; inactive = no such curve, though single readings can be large or run the other way. The list shows a part of the results.
Test: Primary qHTS for Identification of Small Molecule Inhibitors of Huntingtin Promoter Activity; also: nearly all actives have a fitted effect of over 50% in size
Conditions: HEK293 HTT promoter firefly luciferase reporter (activity 0% = vehicle and -100% = no light), 24 h; series mostly up to 57.5 µM; activity change, negative = inhibition: at the top concentration
Summary of the method: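 Firefly luciferase readout (Dual-Glo, 10 min RT) after 24 h, 37 °C compound exposure (final up to 57.5 uM) of HEK293 reporter cells cultured 24 h beforehand; PTC124 at 50 uM final as control inhibitor; activity scaled vehicle 0%, zero RLU -100%.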

Activity change, negative = inhibition, inactive:
COc1cc(C)ccc1OCCSc1nc2ccc(NC(=O)c3ccc4c(c3)OCO4)cc2s1 -28.7%
Cc1ccccc1-c1nc2c(c(SCc3cccc(Cl)c3)n1)Cc1c(CO)cnc(C)c1O2 -12.2%
CCc1ccc(NC(=O)Cn2c(=O)n(CCCC(=O)NCc3ccccc3OC)c(=O)c3ccccc32)cc1 -2.75%
COc1cc(-c2nc(Cn3nnc(C(=O)Nc4ccccc4C)c3C)c(C)o2)cc(OC)c1OC -4.99%
Cn1c(CNc2ccc(C(=N)N)cc2)nc2cc(C(=O)N(CCC(=O)O)c3ccccn3)ccc21 -1.98% [at 25.2 µM]
COc1ccc(C)cc1NC(=O)c1ccc2c(c1)N(Cc1cccc(Cl)c1)C(=O)c1ccccc1S2=O (stereo unspecified) -1.95%
CNC1CCCN(c2c(F)cc3c(=O)c(C(=O)O)cn(C4CC4)c3c2OC)C1 (stereo unspecified)
Clc1cccc(N2CCN(c3nc4ccccc4c4nc(-c5cccnc5)nn34)CC2)c1 1.87%
CC(=O)N1c2ccc(S(=O)(=O)N3CCCCCC3)cc2CC1C(=O)NCc1cccc(F)c1 (stereo unspecified) -16.4%
Cc1ccc(S(=O)(=O)c2nc(-c3cccs3)oc2SC(C)c2ccccc2)cc1 (stereo unspecified) -19.1%
CCS(=O)(=O)N1CCc2cc(C(=O)N3CCN(c4ccccc4)CC3)ccc21 -10.1%
CCOC(=O)c1noc2ncn(CC(=O)Nc3ccc(OC)c(Cl)c3)c(=O)c12 -8.03%
Cc1cccc(NC(=O)CSc2nc(=O)n(CCN3CCOCC3)c3c2CCC3)c1C -11.5%
CCCC(=O)NCc1nc2cccnc2n1Cc1ccc(F)cc1 1.17%
Cc1cccc(Cn2nnc3c(=O)[nH]c(C4CCN(C(=O)c5ccccc5F)CC4)nc32)c1 -18%
C=CCN1C[C@H](C(=O)N(CCCN(C)C)C(=O)NCC)C[C@@H]2c3cccc4[nH]cc(c34)C[C@H]21 7.54%
Cc1ccc(NC(=O)Cn2c(=O)n(Cc3ccc4c(c3)OCO4)c(=O)c3ccc(C(=O)NC4CCCCC4)cc32)cc1 -8.05%
CCOC(=O)c1ccc(NC(=O)Cc2coc3cc(C)cc(C)c23)cc1 -9.26%
O=C(Nc1cc(-c2nc3ccccc3o2)ccc1Cl)c1cccc2c(Cl)cccc12 8.08%
COc1ccc(S(=O)(=O)NCc2cccn2Cc2cccc(C)c2)cc1OC -18%
CCCCc1nn2c(=O)cc(COC(=O)c3ccccc3NC(=O)C3CCCCC3)nc2s1 -18.6%
CCN(C(=O)CSc1nnc(C)n2c1cc1occc12)c1ccccc1 9.45%
CCOc1ccc(NC(=O)c2cc3c(=O)n4cccc(C)c4nc3s2)cc1 10.7%
Cc1cc([N+](=O)[O-])ccc1NC(=O)CSc1nccn1C -21.1%
O=C(CSc1cn(CC(=O)N2CCOCC2)c2ccccc12)Nc1ccccc1C(F)(F)F -4.13%
CCOC(=O)CSc1nc2c([nH]c3ccccc32)c(=O)n1-c1ccc(OCC)cc1 -11.1%
Cc1ccccc1C(=O)Nc1nc2c(s1)CC(C(C)(C)C)CC2 (stereo unspecified) 5.92%
COc1ccc(-c2c(C)c3ccc(O)c(CN4CCN(C)CC4)c3oc2=O)cc1OC -20.6%
COc1ccc2c(c1)c1c(c(=O)n(-c3cccc(Cl)c3)c(=O)n1C)n2C -4.55%
Cc1cccc2sc(N(Cc3cccnc3)C(=O)C3CCCCC3)nc12 -29%
COc1ccc(S(=O)(=O)c2cn(CC(=O)Nc3ccccc3)c3ccc(Cl)cc3c2=O)cc1 -29%
O=C(CSc1nc2c([nH]c3ccccc32)c(=O)n1-c1ccc(F)cc1)N1CCCCCC1 -14.4%
COc1ccc(Br)cc1CNC(=O)CCC(=O)N1CCSc2ccccc21 -24.5%
O=C(Cn1cc(SCc2cccc(C(F)(F)F)c2)c2ccccc21)N1CCCCCC1 -23.7%
COc1cccc2cc(-c3nc(-c4cccs4)no3)c(=O)oc12 0.646%
CN1C(=O)C2CCCCN2c2ccc(C(=O)NCc3ccccc3Br)cc21 (stereo unspecified) 0%
COc1cc(NC(=O)CCc2c(C)nc3c(c(C)nn3-c3ccccc3)c2C)cc(OC)c1OC -15.3%
CCOC(=O)c1c(C)c(C(=O)NCCc2ccc(OC)cc2)c(C)n1CC -5.82%
CC(=O)c1c(C)n(-c2cccc(C)c2)c2ccc(OC(=O)COc3ccccc3)cc12 -6.61%
COc1cccc(-c2cc(C(=O)NCCc3ccc(C)cc3)[nH]n2)c1 -2.66%
Cc1ccc(NS(=O)(=O)c2c(C(=O)N3CCCCCC3)c(C)n(C)c2C)cc1F -6.1%
CCOc1ccc(CNC(=O)Cn2nc(C)c3sc4ccccc4c3c2=O)cc1 3.67%
COc1ccc(C)cc1NC(=O)CN1C(=O)CCc2cc(S(=O)(=O)N3CCOCC3)ccc21 -7.88%
Cc1ccc(C(c2sc3nc(-c4ccco4)nn3c2O)N2CCCCC2)cc1 (stereo unspecified) -18%
CC(=O)c1ccc(NC(=O)CSc2nc(-c3ccccc3F)nc3c2c(=O)n(C)c(=O)n3C)cc1 -13%
CCc1nn(CC(=O)Nc2c(C)cc(C)cc2C)c(=O)c2cc3sccc3n12 -5.55%
C=Cc1ccc(Cn2c(=O)n(-c3ccccc3C)c(=O)c3c4c(sc32)CN(C(C)=O)CC4)cc1 -27.5%
Cc1ccc(N(C)S(=O)(=O)c2ccc3[nH]cc(C(=O)O)c(=O)c3c2)cc1C -0.855%
CCN(Cc1ccccc1)C(=O)Nc1ccc2c(c1)N(C)C(=O)c1ccccc1S2 -9.5%
CN1CCC(=C2c3ccccc3C=Cc3ccccc32)CC1
CCOC(=O)c1c(-c2ccc(C)cc2)csc1NC(=O)c1cc(=O)c2cc(C)c(C)cc2o1 -10.2%
Cc1ccc(NC(=O)C2CCN(c3nc4ccccc4[nH]3)CC2)cc1Cl -3.07%
O=C(NC1(C(F)(F)F)NC(=O)N(CCc2ccccc2)C1=O)c1ccccc1F (stereo unspecified) -5.2%
COc1cccc(CSc2nc3cc(OC)c(OC)cc3c3nc(CCn4nc(C)cc4C)nn23)c1 -3.08%
CCOc1ccc2nc(N(Cc3cccnc3)C(=O)c3ccc4c(c3)OCCO4)sc2c1 -5.12%
COC(=O)c1cc2sc(C)cc2n1Cc1ccc(F)cc1Cl -12.7%
O=c1n(Cc2ccc(F)cc2Cl)c2ccccc2c2nc(-c3ccccc3)nn12 -11.9%
CCCCN(CC)CCCNC(=O)c1cn(CC(C)C)c(=O)c2c1c1ccccc1n2C -17.3%
Cn1c(=O)c2c(nc(NCCc3ccccc3)n2Cc2cccc(Br)c2)n(C)c1=O -14%
Cc1ccc(CCNC(=O)c2nnc(Cc3cccc(F)c3)o2)cc1 -16.6%
CC(C)Oc1ccc(C(=O)Nc2ccc3oc(-c4ccncc4)nc3c2)cc1 -41.7%
COc1ccc(S(=O)(=O)NCC(c2cccs2)S(=O)(=O)c2ccc(C)cc2)cc1F (stereo unspecified) -26.4%
Cc1[nH]c2ccc(F)cc2c1CCNC(=O)c1cc2cc(Cl)ccc2oc1=O 17.3%
COc1cc(NC(=O)C(NC(=O)C2CCC(C)CC2)C(C)C)cc(OC)c1OC (stereo unspecified) 10.1%
COc1ccc(Cl)cc1NS(=O)(=O)c1c(C)nc2scc(C)n2c1=O -5.06%
COCCn1c(CNC(=O)c2cc([N+](=O)[O-])ccc2Cl)nc2cccnc21 1.96%
COc1ccc(C(=O)Nc2onc3c2CCCC3)cc1 2.17%
COc1ccc(NC(=O)Cn2cnc3c(nc4n3CCCCC4)c2=O)c(OC)c1 -15.2% [at 11.5 µM]
COCCCn1c(=N)c(C(=O)NC2CCCCC2)cc2c(=O)n3ccccc3nc21 -1.69%
COc1ccc(C2=CC(c3ccc(N(C)C)cc3)n3nnnc3N2)cc1 (stereo unspecified) -5.35%
Cc1c(CNC2CCCCCC2)c(C(=O)O)c(C)n1Cc1c(F)cccc1Cl -21.5%
CCOC(=O)c1ccccc1NC(=O)Cc1c(C(=O)O)c(C)cn1C -22.9%
CCOC(=O)c1ccc(N2C(=O)c3n[nH]c(C)c3C2c2ccc(O)c(OC)c2)cc1 (stereo unspecified) 4.3%
COc1ccc(N2CCN(C(=O)Cn3cnc4sc(C)c(S(=O)(=O)N5CCC(C)CC5)c4c3=O)CC2)cc1 -2.94%
Cc1ccc(-n2ncc(C(=O)N3CCN(c4ccccn4)CC3)c2C2CCN(C(=O)OC(C)(C)C)CC2)cc1C 1.69%
Cc1cc(=O)oc2c3c(ccc12)OCN(Cc1ccccc1Cl)C3 -15.9%
Cc1ccc(NC(=O)N(Cc2c[nH]c3ccccc23)C2CCCCCC2)cc1C 14.3%
O=c1n(Cc2ccc([N+](=O)[O-])cc2)c2ccccc2c2nc(-c3ccccc3)nn12 -12.5%
Cc1c(NC(=O)Nc2ccccc2C(F)(F)F)c(=O)n(-c2ccccc2)n1C -5.14%
CCOc1ccc(C2=C(C(C)=O)Sc3nnc(C)n3N2C(C)=O)cc1 -23.2%
Cn1c(=O)n(C)c2cc(CNCc3ccc(F)cc3)ccc21 -8.95%
Cc1ccc(Cn2cnc3nc4c(cc3c2=O)CCCC4)cc1 35.4%
CCOc1ccc(NC(=O)c2cccc3c(=O)c4c([nH]c23)CCCC4)cc1 -10.4%
Cc1cc(C)cc(-n2c(SCC(=O)Nc3ccccc3F)nc3c(oc4ccccc43)c2=O)c1 -17.9%
COc1ccc(CCNC(=O)CCN2N=C(c3ccccc3)CCC2=O)cc1OC 13.1%
CCc1ccc(NC(=O)C2(c3cccs3)CCOCC2)cc1 -6.02%
Cc1oc2ncn(CC(C)C)c(=O)c2c1C(=O)N1CCN(c2ccccc2F)CC1 -2.95%
Cc1cc(C)c(NC(=O)CN(c2ccccc2)S(=O)(=O)N(C)C)c(C)c1 -14.9%
O=C(Nc1ccc2oc(-c3ccc4ccccc4c3)nc2c1)c1cccc(Cl)c1Cl -6.47% [at 11.5 µM]
Clc1ccc(-c2nnn3c2nc(N2CCCCC2)c2ccccc23)cc1 -1.57%
Cc1ccccc1NC(=O)c1cc2ccccc2o1 81.9%
COC(=O)c1sc2cccc(F)c2c1S(=O)(=O)NCc1ccc(F)cc1 0%
COc1ccc(C2CC(=O)N(Cc3cccc(C)c3)c3c2c(C)nn3-c2nc(C)cc(C)n2)c(OC)c1 (stereo unspecified) -21.7%
Cc1ccccc1-n1c(=O)c2ccccc2n(Cc2ccc(F)cc2)c1=O -23.1%
CCOC(=O)c1cnc2c(Cl)c(Cl)ccc2c1Nc1ccc(N(C)C)cc1 -1.64%
COc1ccc(-n2c(=O)c3c4c(sc3n(Cc3c(F)cccc3Cl)c2=O)CN(C(C)=O)CC4)cc1OC 9.91%

— PubChem BioAssay AID1508623 (National Center for Advancing Translational Sciences (NCATS), 2021)
